According to the supplement of paper PMC4466236:
In all, about 33,000 sequences were measured (“E-score (dimensionless, -0.5 to 0.5)”: median about -0.058, highest 2% from about 0.35 on). The list shows a part of the results.

Each sequence was assayed on MvaT (assay: PBM 8-mer E-score (mean of HK and ME arrays) (E-score (dimensionless, -0.5 to 0.5)); higher = stronger relative binding preference; most listed sequences are background and not binding sites).
How it was run: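 Full-length P. aeruginosa MvaT carrying an N-terminal glutathione S-transferase tag was tested by protein binding microarray following a previously described protocol. Two universal double-stranded 60-mer arrays, ME and HK, were used, each with a constant 25-mer primer region and a variable 35-mer region covering all 8-mers. The rank-based E-score is the mean of the two arrays, parsed with a custom script. Its range runs from -0.5 to 0.5 for each 8-mer.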

Sequence	PBM 8-mer E-score
GTAGGGGA	-0.212
ATGCCAAT	0.0128
AGCGTCCC	-0.295
GAATAAAC	0.192
GCGTGGTA	-0.0771
ACGAGGAA	-0.000787
ACGCGACT	-0.096
AGCGGTAC	-0.0964
AAAGGATA	0.119
ATTGAGAG	-0.0841
ACTGGTCA	-0.137
GATTATAA	0.41
AGTCCGAT	-0.143
AATCACAA	0.126
GTCTCAAC	-0.00376
AAGGGCAT	-0.0916
CCGGGGAA	-0.107
CGCGAGCC	-0.289
AATGGAAA	0.154
CGGCTCAC	-0.272
GCCGGTCC	-0.109
GCAGAGAA	0.0285
ACAGTAGA	0.0623
ATCCTAGA	-0.198
AGGGTACG	-0.212

Sequence	PBM 8-mer E-score
ATAGTCGG	0.0516
GGCGCGGA	-0.309
ACGTCCCC	-0.161
AGTGTGAC	0.0563
CAGTAGGG	-0.228
AGCTGATG	-0.0727
CCGGACTC	-0.117
CAGTGCGA	0.0228
CCGAAGCC	-0.247
CAGGCTTC	-0.24
CAGTACAG	-0.0775
AATCCCCT	-0.223
AATTAGTC	0.282
GCCCAACA	-0.163
CTGAGTCC	-0.191
AGATGTGG	-0.155
AGCATGAC	-0.208
CTTGTCAC	-0.201
CGTGGGTA	0.0178
GAAAGGGC	-0.199
AAGACAAG	0.0271
AATCGATC	0.0462
GCAAGTAC	0.161
GCAAGGCC	-0.272
CGCTAACG	-0.207

Sequence	PBM 8-mer E-score
TTCTCCAA	-0.0358
CCGAGCGC	-0.231
AATTGTTC	0.263
TAGTCTAA	0.183
CCTAAACA	0.0471
ATATCCAA	0.242
ACACGTAA	0.167
CTACTACC	-0.126
TGCCTTAA	0.151
GGTTAAAA	0.239
CTCACGCC	-0.235
GTACAGAA	-0.034
GGGAGACC	-0.254
GTGATGTA	-0.0306
AACCCGCC	0.101
ATATAGGG	0.135
GTCGCCCA	-0.221
CACACTGA	0.0119
CTTGAATC	-0.127
CTGGAGGA	-0.344
CCGACGAG	-0.302
CGGGGCAG	-0.247
CAAGATCC	-0.179
CACCCAAG	-0.111
GAGAACTA	0.161

Sequence	PBM 8-mer E-score
TCATAGCA	0.0699
CGTGCTGA	-0.239
AGCCTTAC	-0.0634
TACCCCCA	-0.124
CAGCATCC	-0.243
CCGAGGGC	-0.235
GATCCTGA	-0.242
AACCTAGG	-0.0613
GCCGGGAA	-0.122
AAACGACG	0.0089
ACAAAACG	0.00437
AATAGTGT	0.274
CGGTCACA	-0.153
GAGGTAGC	-0.211
AGCAGACC	-0.149
AAGTCGTG	-0.0141
GACTAACA	0.0565
CCTCTGTA	-0.19
ACCGGTCC	-0.0864
CCAGCAAG	-0.0175
GGAGGGGA	-0.359
GCCAACAA	0.0913
CCTATGCC	-0.186
CACGGCCA	-0.192
TGCGGTAA	0.00472

Sequence	PBM 8-mer E-score
CAGCATGG	-0.0956
GAAATACC	0.153
GAAGCCCC	-0.256
CAGCGAGC	-0.199
ATAGGAAT	0.124
AGGCAGGG	-0.202
AGGAGAGG	-0.302
CTCTGTAC	-0.205
ATCAGAAT	0.06
CTACGTTC	-0.226
ACGCACCC	-0.125
AGCAATCA	0.0975
GAACGCTC	-0.183
AGCCCGCC	-0.113
ATATGACC	0.0259
CTTCATGA	-0.0582
CTTACAGC	-0.123
CCACTCAG	-0.127
CAACGGAG	-0.199
CCCCGGAC	-0.266
CACCCGGA	-0.27
GGAGGGAC	-0.273
CAGGACTG	-0.0561
CTTACTAC	0.0674
ATCGCCCC	-0.264

Sequence	PBM 8-mer E-score
CGATAGAC	-0.0996
ATTTTTGG	0.04
ACTAGTGC	0.0641
CACACCCA	0.0517
ACACTAAC	0.216
CCGACGTA	-0.0615
GTACTAAA	0.213
CCTCCTAC	-0.274
GTCTCCAA	-0.205
CCTTCATA	0.0473
GCCCCGCC	-0.264
ACTAACGA	0.169
CGTCGTGA	-0.171
GTGCGCAA	0.017
ACCTTTGG	-0.119
GAGTTAGC	-0.00613
AGGGGACT	-0.213
GCAACTAA	0.147
CGTTTCGC	-0.0825
TCCCTCGA	-0.07
CGAACGCG	-0.0354
CAAGAAGC	-0.16
AGGCCTCA	-0.268
AGTAAACA	0.0963
GTCGTCTA	-0.0717

Sequence	PBM 8-mer E-score
ATAGGGCG	-0.00817
AGCGTTCG	-0.109
ACAGGTGG	-0.204
CGCCCACA	-0.198
ATAAGCCA	0.0651
CTATTGAC	0.0407
CGTAAGAA	-0.0208
AAGGTAGC	-0.06
CCTGCACG	-0.224
ATGCTACA	0.0189
AGTATAGC	-0.0476
GATAATCC	0.175
AGAGCTGC	-0.163
AACCAAGC	-0.124
ATGCGTGA	-0.0665
ATGCTGTC	-0.105
GCTCACGA	-0.171
GATTGTCC	-0.0667
CCGCCGGA	-0.104
CTATGGTA	0.0829
ACAATATC	0.258
CGGTCGGA	-0.368
ACAGTTAC	0.236
AACCACGC	-0.0918
CGCGTACA	-0.101

Sequence	PBM 8-mer E-score
AGTGCGTC	-0.0339
GACCATAA	-0.0261
CGTAGACC	-0.261
TAAAGGAA	0.0516
ATGTGCCC	-0.103
CCTGAGTC	-0.0974
GAGAACGC	-0.107
CCGCATAG	-0.0568
GCTTAAAC	0.121
CTCGCCAA	-0.145
ACCATGTA	0.111
ATTTGGTG	0.146
ATTCCGTA	0.129
ATCACCGG	-0.204
GTAATGAA	0.00633
AAACCATT	0.123
AGGAGCAG	-0.32
CATTACTC	0.108
TCCCCTCA	-0.358
GGAGAAGA	-0.196
AAGTCCCT	-0.0831
GCGTTTAC	-0.149
CGCCGTAA	-0.155
CTTTGCTA	0.169
ACCATATG	0.281

Sequence	PBM 8-mer E-score
TAGCCCCA	-0.121
CAGAAGAC	0.0523
CGCGTGCC	-0.256
AGGTCCAG	-0.177
AAACTCGA	0.097
CTGCTCGA	-0.203
CCCCCTCC	-0.39
GTGAGGCA	-0.207
CTAAGGAA	-0.0352
ACACATGG	-0.0786
AATGTCGG	0.128
ACTCGATA	0.0712
CATCGAAA	0.0174
TATCATCA	0.112
AATACGCG	0.202
CCCCTATA	-0.0385
AATGACCC	-0.126
ATATTGGG	0.172
CCAAAGCG	-0.169
CATGTCAA	0.0801
AGTTAACT	0.377
GAATCAGC	-0.166
CAGGCCAA	-0.233
AGAGCGCG	-0.146
ATCTCAAC	-0.0313

Sequence	PBM 8-mer E-score
ACAGGGTG	-0.121
CCCTATTA	0.186
ACGAGTCT	-0.152
CTGGCAGA	-0.238
CACCAATC	0.0155
CACGTTAG	-0.171
CTACGTCA	-0.159
ATCACGGA	-0.132
GTCAACTA	0.19
ACAGCGGT	-0.17
GGCGTTAA	0.0645
CCGTGTCG	-0.298
ACAGAGCC	-0.222
ACTCGCGA	0.0409
GACGCGCC	-0.316
AGCAGCAG	-0.173
CGACCACA	-0.161
CGCCGAAG	-0.252
ACCACTGG	-0.167
GCCCAGGC	-0.322
ACTGCAAT	0.121
ACAATTCC	0.137
ACAACGAA	0.0473
CGTTGGGA	-0.154
TGAATAAA	0.268

Sequence	PBM 8-mer E-score
GACAGTAA	0.193
ATGAAGGG	-0.143
AGCTGGAG	-0.185
ATGCGCCC	-0.224
ATCGTTTA	0.0357
CAAGCTAC	-0.145
AGGGCTTG	-0.282
CGGGATAG	-0.00495
CTACGGAG	-0.173
GCCAGACC	-0.183
ACACCACG	-0.138
CAATGAAC	-0.0194
CTATCGTA	0.0644
CAATTTTC	0.0781
AGATCCTC	-0.195
ACCATGAG	-0.112
CGATCCCA	-0.08
AAGAAACT	0.186
ATCTGTTA	0.0984
AGGGGGCA	-0.247
CCTTATCC	-0.0829
CCCCCTGA	-0.251
ACGAGCAA	-0.0499
ATTATGGC	0.202
CAAAATGA	0.0724

Sequence	PBM 8-mer E-score
GTGGTATA	0.279
AACATAAT	0.371
CCGCAGTC	-0.09
CCTTACAG	0.0714
CTTTTATA	0.31
TACAACCA	0.102
ACGAATCC	-0.0548
AGCTCTCC	-0.237
CAGTAACA	0.0741
CCAAGCCC	-0.303
GTTGCGGA	0.123
TTGATCAA	0.194
ACGGACGA	-0.238
TAACCTGA	0.0581
ATGTTTTA	0.248
AGCATCTG	-0.136
AGAGAGCC	-0.296
CAAAATGC	-0.0608
AGCCTGTC	-0.172
AATATGGC	0.27
AGTGCACA	0.0205
AGGGTTAT	-0.0153
CCATGAGA	-0.0578
GCTATGTA	0.0911
ACATTGGG	0.0365

Sequence	PBM 8-mer E-score
GTGGGATA	0.139
ATCAGTGG	0.00645
CTAACGCC	-0.177
ATTCTACA	0.117
AAATTGGG	0.16
AGAGGGCC	-0.342
TACTTAGA	0.254
ACCAGGCA	-0.225
ACCCGTCC	-0.209
CTGTGCCC	-0.15
AGTGTTCA	0.0961
GAGGAGAC	-0.252
AAGCGCGC	-0.109
ACGTGCTG	-0.108
GAAACCAA	0.121
CCTCGATC	-0.292
CGATACGC	-0.172
TCCTAGAA	-0.105
ATAGGGCC	-0.187
TCCGGGCA	-0.134
CCGAGTTC	-0.167
GACACAAC	0.0534
GTCACCAA	-0.101
AATGGGGA	-0.196
TGGGGGAA	-0.14

Sequence	PBM 8-mer E-score
CCACGGTA	-0.236
ACGCGCTG	-0.0976
AATGGGCG	-0.13
AAGAGTTA	0.207
CGAGCCTA	-0.211
AAACAGTA	0.162
GCATATGA	0.176
CATACCGC	-0.157
CCTTTAGC	-0.191
ACCGATCC	-0.0999
CTGCACGA	-0.103
AAACGTTT	0.255
AGCTCGTG	-0.226
GCCTCCAC	-0.271
CCCATGAA	-0.00329
ATGCAGAC	-0.109
TCAGGCAA	-0.0104
AACAAATG	0.172
CCTTTTAC	-0.0247
